Test results: PubChem BioAssay AID493208 (National Center for Advancing Translational Sciences (NCATS), 2011)
About 340 (0.77%) of roughly 44,000 compounds were called active. Inconclusive results (about 5%) are left out. Calls come from the whole dose curve; as a rule, active = well fitted inhibition curve with a large enough effect; inconclusive = small, poorly fitted or top-dose-only effect; inactive = flat fitted curve, though single readings scatter. The list shows a part of the results.

Experiment: Acumen qHTS Assay for Inhibitors of the mTORC1 Signaling Pathway in MEF (Tsc2-/-, p53-/-) Cells: Sytravon;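 note: plate controls were DMSO for no effect and rapamycin for full effect; nearly all actives have a fitted effect of over 50% in size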
Conditions: phospho-rpS6 immunofluorescence/PI, 24 h; series mostly up to 38.3 µM; activity change, negative = inhibition: at the top concentration
Summary of the method: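 Read-out: phospho-S6 Alexa-488 intensity over PI intensity per well, scored as % active cells using thresholds from rapamycin (7.5 nM) and DMSO controls. Tsc2-/-, p53-/- MEFs exposed to compound for 24 h; PI cell count recorded as viability.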

| Compound | activity change, negative = inhibition |
| --- | --- |
| CCN(CC)c1ccc(-c2nc(-c3ccncc3)no2)cc1[N+](=O)[O-] | inactive: 6.1% |
| CCc1cccc2sc(N3CCN(C(=O)C4CC4)CC3)nc12 | inactive: -0.611% |
| Cc1cc(NC(c2nnc(-c3ccccc3)o2)c2ccccc2F)ccc1Br (configuration not stated) | inactive: -14.4% |
| CCN1C(=O)c2cccc3c(S(=O)(=O)Nc4ccc(O)c(C(=O)O)c4)ccc1c23 | inactive: -2.36% |
| CCS(=O)(=O)Nc1cc(-c2cn3ccc(C)cc3n2)ccc1C | inactive: -0.647% |
| CC(C)(C)OC(=O)N1CCC(c2c(C(=O)N3CCc4ccccc4C3)cnn2-c2ccc(Cl)cc2)CC1 | inactive: -7.83% |
| CCOc1ccccc1C(=O)N(Cc1ccc(N(C)C)cc1)CC1CCCO1 (configuration not stated) | inactive: -11.1% |
| Cc1cc(C)cc(C(=O)N2CC(=O)Nc3ccc(C)cc3C2c2ccccc2)c1 (configuration not stated) | inactive: 16.2% |
| CCCCNC(=O)CSc1nc2cc3c(cc2c(=O)n1CCCC(=O)NCc1ccc2c(c1)OCO2)OCO3 | inactive: -3.47% |
| COc1ccccc1NC(=O)CSc1ncc2c(n1)-c1ccccc1N(Cc1ccccc1C)S2(=O)=O | inactive: 2.31% |
| CCOC(=O)C1CCCN(S(=O)(=O)c2cc(-c3cc(C)no3)ccc2OC)C1 (configuration not stated) | inactive: -17.5% |
| CC(C)CC(=O)Nc1ccc2nc(SCC(=O)N3CCc4ccccc43)sc2c1 | inactive: 1.32% |
| CCOc1ccccc1CNC(=O)c1sc2ncccc2c1-n1cccc1 | inactive: -21.8% |
| CCOc1cc(C2c3c(-c4cc(C)ccc4O)n[nH]c3C(=O)N2CCCOC(C)C)ccc1O (configuration not stated) | inactive: -15.7% |
| CCn1ccc2cc(S(=O)(=O)N3CCCN(C(=O)Nc4ccccc4F)CC3)ccc21 | inactive: 6.13% |
| O=C(COC(=O)c1cc(-c2cccs2)nc2ccccc12)c1ccc(F)cc1 | inactive: 9.27% |
| O=C(CSc1nnc(-c2ccc3c(c2)OCO3)o1)Oc1ccccc1 | inactive: -0.93% |
| COc1cccc(Cn2c(SCC(=O)N3CCN(c4ccc(F)cc4)CC3)nc3ccccc32)c1 | inactive: -3.29% |
| O=C(Cn1c(=O)n(Cc2nc(-c3ccccc3)no2)c(=O)c2cc3c(cc21)OCO3)Nc1ccccc1 | inactive: -0.109% |
| CCC(C)n1c(=O)c2sccc2n2c(CCCC(=O)N3CCN(c4ccccc4)CC3)nnc12 (configuration not stated) | inactive: -9.38% |
| CCOc1ccc(-n2c(SCC(=O)Nc3cc(C)ccc3C)nc3c([nH]c4ccccc43)c2=O)cc1 | inactive: -2.71% |
| Cc1ccc(Cn2cc(S(=O)(=O)c3cccc(C)c3)c(=O)c3cc(F)c(N4CCOCC4)cc32)cc1 | inactive: -5.04% |
| COc1cccc(Cc2nc3ccccc3nc2SCC(=O)Nc2cccc(C)c2)c1 | inactive: -7.53% |
| COc1ccc(CNC(=O)c2sc3nc4n(c(=O)c3c2C)CCCC4)cc1 | inactive: 8.62% |

| Compound | activity change, negative = inhibition |
| --- | --- |
| O=C(Nc1cc(-c2ccccc2)sc1C(=O)O)c1cccc(F)c1 | inactive: -10.8% |
| O=C(Cc1ccccc1)Nc1sc2c(c1C(=O)Nc1ccccc1Cl)CCCCC2 | inactive: -1.99% |
| CC(C)c1ccc(NC(=O)CSC2=Nc3ccccc3C3=NC(CCC(=O)NC4CCCCC4)C(=O)N23)cc1 (configuration not stated) | inactive: 1.82% |
| COc1ccc2c(c1)CCc1c(C(=O)Nc3cc(OC)c(Cl)cc3OC)noc1-2 | inactive: -2.98% |
| COC(=O)c1cc(Nc2nc3ccccc3nc2NS(=O)(=O)c2ccc(C)cc2)ccc1Cl | inactive: -0.861% |
| Cc1cccc(Nc2ncnc3onc(-c4ccc(Cl)cc4)c23)c1C | inactive: 2.61% |
| Cc1ccc(-n2c(=O)c3cccnc3n2CC(=O)NCc2ccc(Cl)cc2)cc1 | inactive: 0.27% |
| Cc1ccc2oc3c(c(=O)c2c1)C(c1ccc(O)cc1)N(CCCN(C)C)C3=O (configuration not stated) | inactive: -13.2% |
| COc1ccc(C(=O)Nc2cccc(C(=O)OCc3cc(=O)n4nc(C5CC5)sc4n3)c2)cc1 | inactive: 0% |
| Cc1cc(F)ccc1NC(=O)C(c1ccccc1)N1Cc2ccccc2C1=O (configuration not stated) | inactive: -2.89% |
| Nc1c(C(=O)Nc2ccc(F)cc2)sc2nc(-c3cccs3)cc(C(F)(F)F)c12 | inactive: -27.3% |
| COC(=O)c1ccc([C@@H]2Nc3c(OC)ccc(C)c3[C@@H]3C=CC[C@@H]32)cc1 | inactive: 6.23% |
| CCn1c2ccccc2c2cc(CN3CCN(Cc4ccc(Br)cc4)CC3)ccc21 | inactive: -0.974% |
| CC1N=C2c3ccccc3N=C(SCC(=O)NCCc3ccc(Cl)cc3)N2C1=O (configuration not stated) | inactive: 13.5% |
| O=C(CCS(=O)(=O)c1cc2c(cc1Cl)NC(=O)CO2)NCc1ccc(Cl)cc1 | inactive: 6.41% |
| O=c1cc(-c2ccccc2)c2ccc3c(c2o1)CN(Cc1cccc(Cl)c1)CO3 | inactive: -19.7% |
| CCOc1ccc(CC(=O)Nc2cccc(-c3nc4cccnc4s3)c2C)cc1 | inactive: -14.9% |
| Cc1ccccc1NC(=O)Cn1c(=O)n(CCCC(=O)NCc2ccc3c(c2)OCO3)c(=O)c2ccccc21 | inactive: 5.53% |
| COc1ccc2[nH]cc(CCN=C(NC(=O)c3ccccc3F)Nc3nc(C)cc(C)n3)c2c1 | inactive: 0.419% |
| Cc1ccc(-c2cn3cccnc3n2)cc1NC(=O)C(C)(C)Oc1ccc(Cl)cc1 | inactive: 3.71% |
| Cc1c(C(=O)Nc2ccccc2Br)oc2ccc(S(=O)(=O)N3CCCCCC3)cc12 | inactive: -10.9% |
| C=C(C)CSc1nc2sc3c(c2c(=O)n1Cc1ccccc1)CC(C)(CC)OC3 (configuration not stated) | inactive: 11.1% |
| CCC(C)NC(=O)CN1C(=O)c2cccnc2Sc2ccccc21 (configuration not stated) | inactive: -3.81% |
